No constants are given. Whether binding was seen depends on the method and setting. Binding seen in cells or lysates may run through a third protein. Some entries that bind do so weakly or less than the wild type.
Molecular target: T1, endogenous Nrf2 (mouse) (mouse (endogenous in primary neurons and brain)) (UniProt Q60795)
T1 sequence: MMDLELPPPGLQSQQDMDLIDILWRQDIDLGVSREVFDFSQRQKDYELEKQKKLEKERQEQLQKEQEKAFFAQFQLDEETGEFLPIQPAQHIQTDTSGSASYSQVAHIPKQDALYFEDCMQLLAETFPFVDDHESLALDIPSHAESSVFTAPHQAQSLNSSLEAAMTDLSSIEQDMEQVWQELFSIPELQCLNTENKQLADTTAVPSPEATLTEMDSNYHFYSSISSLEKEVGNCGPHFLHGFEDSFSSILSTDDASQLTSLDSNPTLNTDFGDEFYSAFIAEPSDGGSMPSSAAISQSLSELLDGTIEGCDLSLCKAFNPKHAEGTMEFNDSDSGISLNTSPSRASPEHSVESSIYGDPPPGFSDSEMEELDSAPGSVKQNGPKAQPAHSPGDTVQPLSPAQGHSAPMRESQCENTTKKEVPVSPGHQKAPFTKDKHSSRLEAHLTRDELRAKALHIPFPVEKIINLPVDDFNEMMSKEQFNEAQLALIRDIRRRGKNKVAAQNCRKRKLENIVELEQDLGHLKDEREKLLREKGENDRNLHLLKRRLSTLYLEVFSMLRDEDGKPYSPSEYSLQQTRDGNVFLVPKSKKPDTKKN
Test: co-IP; endogenous proteins in primary mouse neurons, control or OGD 1 h and reperfusion 24 h; whole lysates and cytoplasmic and nuclear fractions; in some experiments neurons infected with adenoviruses expressing SENP6 or SENP6 shRNA for 48 h

binding: binds
Substance: endogenous Cul3 (mouse) (from UniProt Q9JLV5 1-768)

Source: PMC11831438
